From the supplement of paper PMC3334620
In all, about 33,000 sequences were measured (“E-score (-0.5 to 0.5)”: median about -0.016, highest 2% from about 0.31 on). This is one part of the list.

Molecular target: Cst6 (UniProt P40535)
Test: PBM E-score (8-mer binding enrichment) (E-score (-0.5 to 0.5)); higher = stronger / more preferred TF binding; most listed sequences are background and not binding sites
Conditions: protein concentration: 200 nM; construct: GST-DNA-binding domain
Outline: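 GST-tagged yeast TFs (full-length or DNA-binding domain) were made by PURExpress in vitro transcription/translation and applied at about 100-200 nM to universal all-10-mer Agilent arrays. The arrays were made double-stranded by primer extension, on fresh or once-stripped slides. Bound protein was detected with fluorescent anti-GST, and scans were normalised with masliner. Each ungapped eight-base word, pooled with its reverse complement, received an E-score (modified Wilcoxon-Mann-Whitney statistic) from the Universal PBM Analysis Suite.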

Sequence | PBM E-score
TCAGGCGA | -0.0441
CACAGCGG | 0.00487
AATAGGGA | -0.312
GAACAATA | 0.234
ATGCCAAC | 0.0227
CAACGATA | -0.0093
AAATCTAG | -0.0771
GCGACTGA | -0.145
GTGTTAGA | -0.0843
AGGAGTCG | -0.221
CAGCACAG | 0.149
AGATCCGC | 0.0272
ATTATAAC | 0.0838
CTGGGCCA | -0.406
CCTGGATC | -0.334
CTGCGCAG | -0.322
ATCTTCTC | -0.0503
CTCACGCA | 0.258
CCATGCCC | -0.234
ACCCGCAA | -0.202
ACTTGTTA | 0.0761
CGAACCTA | -0.165
AGACTAAA | 0.0784
CACGCCAG | -0.212
ATCCGAGC | -0.23

Sequence | PBM E-score
CCACGAAG | -0.152
CTTTACCA | -0.0956
CCGTGCCG | 0.205
CGTACAAA | 0.175
CCTGCCCG | -0.108
AGAATGTG | 0.0949
GTGAGATA | 0.129
GGTGTTTA | 0.0743
CCGAGAGG | -0.254
GTTCGGGA | -0.0952
GAGCAAGA | -0.0552
CAGCCTCG | -0.0587
ATTCCGTG | 0.121
ACTATCTA | 0.0552
CAGAAGAG | 0.0467
CCGTCGCG | -0.22
AAATTTGT | 0.137
AGGAAGAT | -0.0159
GAGAAGAC | 0.021
ATGGAAGG | -0.065
GATCCGTA | -0.0774
CCTTGAGC | 0.00672
CTTCGATC | -0.0364
TGCACACA | -0.017
CACAACGG | -0.00695

Sequence | PBM E-score
CATGGCCG | -0.137
AAACAGGC | -0.0905
GGAGAGAA | -0.12
AAGAACAA | 0.327
ATGGTACC | -0.256
GAACCTGC | -0.17
AAGCCGTC | 0.082
ACTGTCAT | 0.0752
AGATTTAC | 0.176
ATGACTCA | 0.309
CTTCGAAA | 0.13
AAGTGAGG | -0.122
ACAGTCAT | -0.0182
AACAGTCA | -0.00564
ACCGCTCC | -0.165
AGTGGCAC | -0.115
CGGTAACC | -0.186
GTTCAAAC | 0.214
ATGAAGAG | 0.0318
TGGTAGAA | -0.0488
TAAAAGAA | 0.171
CCCTACCG | -0.074
CATACTGC | -0.0994
CAGGCGGG | -0.333
CAAGAATA | 0.187

Sequence | PBM E-score
ATCTACGC | 0.136
ACCCAGAT | -0.16
ATAAGTCC | -0.125
GACGTGAC | 0.394
CGGACGTC | 0.252
CGCCATAA | 0.134
GAGAACAC | 0.0644
GAACCACA | -0.0143
TCGAAGCA | -0.0376
CCTGTTCC | -0.0903
CGTCGCAC | -0.00823
ACGGGATG | -0.202
CGGTACGC | -0.163
GGGCAGTA | -0.224
GGGTCACA | -0.176
GGAGCGAA | -0.0818
ATGGCATC | 0.132
AGATTTCA | 0.0869
TATTAAGA | 0.0221
ATCTATTC | 0.116
GTATTTGA | 0.00135
AGCCTCTG | -0.334
GATCTAGA | -0.0241
ACATCCAT | 0.0497
AACTAAGA | 0.217

Sequence | PBM E-score
CCCAAAGA | -0.0301
CAGGTGTC | -0.00571
GAAAGCGA | -0.041
AACTGCTA | -0.0301
TACACGCA | -0.0207
TAAGCCAA | -0.0805
ACACAATA | 0.183
GACAGTGA | 0.13
TACGGACA | -0.00309
AGAATGTC | 0.134
ATCTTGTA | 0.0755
GATTACGC | 0.329
ACCCGGGG | -0.233
TAGTGGGA | -0.299
CCGAGCCA | -0.157
TCAGGAAA | 0.053
ATATTGGA | 0.0379
AAGTGATC | 0.0504
CTCGGTCA | 0.0022
GCAAATGA | 0.103
AATTTGCT | 0.0623
CAAATGCA | -0.0341
TAGTATGA | 0.273
CGAAAGAG | 0.111
ACCGCTAA | 0.0585

Sequence | PBM E-score
CATTATCA | 0.137
AGACAATA | 0.213
AGCGAAAG | 0.0106
AATTTAAT | 0.282
GCGAGAGC | 0.0503
TCATAGAA | 0.229
GACGATAC | 0.0236
GAAAGTAC | 0.113
AGAGCCCC | -0.205
ACACTTGA | -0.173
CCACATAC | 0.0455
GACCAACA | 0.164
ATAGAAGA | -0.108
GCATCATA | 0.339
ACATAGGT | 0.108
ATCACGCC | 0.0769
CCTACGCC | -0.167
AGAGCGAG | -0.126
ACACACCA | 0.0971
GTAGACGA | 0.0284
CCGTCTCG | 0.0848
GTGCCGGA | -0.104
CTAGAGGC | -0.149
ATCACGGC | 0.141
GTTCCTGA | -0.185

Sequence | PBM E-score
AGTGACGC | 0.438
AATATGAT | 0.233
CGCTTTTA | 0.114
ACGATCGA | 0.0465
AGTGCAGC | -0.108
GCTTAACC | -0.143
AACCACTA | -0.0168
GGACGGGA | -0.285
GAGTAAGA | 0.153
CGAAACAC | 0.125
GACTTCCC | -0.16
GCTCGACA | -0.248
CAGGCCTC | -0.418
CACGATTC | 0.0982
AACAAGGC | -0.0127
CGCATAAC | 0.134
ATTACGTC | 0.485
AACTTGCT | -0.117
TATTCCGA | 0.0724
ACCTGGAG | -0.166
TACTGCAA | -0.0176
TACAGTGA | 0.141
